Test results as given in the supplement of paper PMC10338343.
± gives the standard deviation. Only a part is listed here, and it is no random draw.

What follows are sequences tested on MIWI (PIWIL1) piRISC loaded with piRNA #1 (30 nt) (assay: pre-steady-state target cleavage rate (min^-1); MIWI and MILI are mouse PIWI proteins and EfPiwi is from a freshwater sponge; tags in brackets are library labels; higher = faster piRNA-guided slicing of the target). Settings: guide: piRNA #1 5'p-UGAGGUAGUAGGUUGUAUAGUAUCCAGAGG; auxiliary factor: 500 nM mouse GTSF1.
Procedure, shortened: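 Sequencing of uncleaved targets, normalised to depth and to weakly complementary targets, was the readout of this Cleave-'n-Seq assay. A transcribed, DNA-blocked target RNA library (0.1 nM) was mixed with 1 nM active affinity-purified piRISC carrying one synthetic guide, with or without 500 nM GTSF1 partner protein, in HEPES–potassium acetate buffer at 33 °C for 0–8 or 0–960 min. Three trials were pooled, k3 was capped at 0.0001 min^-1, and a burst-and-steady-state fit gave the pre-steady-state cleavage rate.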

Going from GGAGACCAUAUCUAUACAACCUACUACCUCA to GGUCUGGAUACUAUACAACCACUACCUCA, the “pre-steady-state target cleavage rate” value falls from 1.35 ± 0.11 to 0.00445 ± 0.0024.

Compared with GGAGACCUAACUAUGCAACCUACUACCUCA, GGAGUGGAUACUAUUCAACCUACUACCUGA is lower in “pre-steady-state target cleavage rate” value: 0.715 ± 0.066 for the first, 0.347 ± 0.06 for the second.

First: GGACUGGAUACUAUACAACCUACUACCGCA
Second: GGAGACCUAUCUAUAUAACCUACUACCUCA
The “pre-steady-state target cleavage rate” value of the first is lower: 0.277 ± 0.04 for the first, 0.755 ± 0.06 for the second.

Compared with GGAGACCUUACUAUACAACCUACUUCGUCA, GGAGACCUUACUAUACAACCUACAACGUCA is higher in “pre-steady-state target cleavage rate” value: 0.201 ± 0.033 for the first, 0.288 ± 0.046 for the second.

Going from GGACUCGAUACUAUACAACCUACUUCCUCA to CGUCUGGUUACUAUACAACCUACUACCUCA, the “pre-steady-state target cleavage rate” value rises from 0.0113 ± 0.0038 to 1.48 ± 0.083.

Going from GGUCUGGAUACUAUACAACCAACUACGUCA to GGAGACCUAUCUAUACAACCUACUACCUACA, the “pre-steady-state target cleavage rate” value rises from 0.0761 ± 0.011 to 0.629 ± 0.058.

Compared with GGUCUGGAUACUAUACUACCUUCUACCUCA, GCUCUGGAUACUAUACAACCUACUUACCUCA is higher in “pre-steady-state target cleavage rate” value: 0.269 ± 0.027 for the first, 2.1 ± 0.13 for the second.

Compared with GGACUGGAUACUAUACACCCUACUACCUCA, GGAGACCUAUCUAUAGAACCUUCUACCUCA is lower in “pre-steady-state target cleavage rate” value: 1.58 ± 0.13 for the first, 0.0608 ± 0.0097 for the second.

Going from GGAGACCUUAGUAUACAACCAACUACCUCA to GGAGACCAUACUAUUCAACCUUCUACCUCA, the “pre-steady-state target cleavage rate” value rises from 0.011 ± 0.0029 to 0.423 ± 0.028.

First: CCUCUGGAUACUAUACAACCUACUACGCUCA
Second: GGAGAGGAUACUAUAUAACCUACUACCUCA
The “pre-steady-state target cleavage rate” value of the first is higher: 1.73 ± 0.11 for the first, 1.39 ± 0.067 for the second.

Going from GCUGUGGAUACUAUACAACCUACUACCACA to CCUCUGGAUACUAUACAACCUAGCUACCUCA, the “pre-steady-state target cleavage rate” value falls from 0.494 ± 0.051 to 0.187 ± 0.019.

Going from GGAGACCUAACUAUAGAACCAACUACCUCA to GGAGACGAUACAAUACAACCUACUAGCUCA, the “pre-steady-state target cleavage rate” value rises from 0.00608 ± 0.0017 to 0.617 ± 0.051.
